Sequences with one replicate were seen in a single cluster, so their values are uncertain.
test system: ATP; assay: switch fluorescence ratio, 500 uM ATP over buffer (Cy3 cluster intensity, sum of 5 cycles each) (fold (ratio)); higher = stronger signal-on switching upon ATP binding; sequences stand for … in TCGTCGGCAGCGTCAGATGTGTATAAGAGACAGTTTTTTTTTTTTTTTTTTTTTTTTT…TC; conditions: aptamer strand: ATP DNA aptamer (quencher-CACCTGGGGGAGTATTGCGGAGGAAGG + anchor), 100 nM annealed; ATP concentration: 500 uM; one replicate
Method in brief: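 For every switch-domain sequence, the fluorescence ratio is the mean of per-cluster values, each being summed target-cycle Cy3 intensity over summed buffer-cycle Cy3 intensity. Clusters outside 100-1000 RFU were excluded. On a modified Illumina MiSeq flow-cell, the Cy3-labelled switching-strand clusters were annealed to 100 nM quencher-labelled ATP aptamer, imaged in selection buffer and then after 15 min with 500 uM ATP at 22 °C. Five such cycles were run, with NaOH stripping and re-annealing between them.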
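Note: ATP exposure 15 min at 22 °C before imaging.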

Sequence	switch fluorescence ratio
GCGCACGTGA	1.01
GCGCAGCGAC	1.15
GCGCAGGCAG	1.02
GCGCATCCAT	1.01
GCGCATTTGT	1
GCGCCCAGGC	1.18
GCGCCGCTGA	1.51
GCGCCGTCTT	1.04
GCGCCGTGGG	0.976
GCGCCGTGTG	0.998
GCGCCTAGTA	0.992
GCGCCTTATT	0.986
GCGCCTTCGC	1.03
GCGCGAGGAT	1.08
GCGCGCGAAA	1.03
GCGCGGCACC	1.08
GCGCGGCGCA	1.04
GCGCTCATTA	1.02
GCGCTTAGGG	0.962
GCGCTTGGTG	1.03
GCGGAATTG	1.02
GCGGATTTTG	1.02
GCGGCACATT	1.02
GCGGCAGATC	1.02
GCGGCCGGCG	1.11

Sequence	switch fluorescence ratio
GCGGCGCGAA	0.962
GCGGCTAATT	1
GCGGCTACGG	0.999
GCGGCTGGTC	0.999
GCGGCTGTA	1.01
GCGGGAACTT	1.04
GCGGGAGGGC	1.07
GCGGGCATTC	1.1
GCGGGGAACG	1.02
GCGGGGAAGG	1.02
GCGGGGACGA	1.03
GCGGGGGATA	1.03
GCGGGGGGC	0.968
GCGGGTACCA	1
GCGGGTTCGT	0.966
GCGGTAAGGA	1.02
GCGGTAAGTA	0.998
GCGGTCATGA	0.986
GCGGTCTTCG	0.999
GCGGTCTTTG	1.01
GCGTAACGCA	1.03
GCGTAAGGGA	1.05
GCGTAGGCCT	1.02
GCGTATAGAG	0.976
GCGTATCAGT	0.993

Sequence	switch fluorescence ratio
GCGTATGAAA	0.987
GCGTATGTGA	1
GCGTATTCAG	1.02
GCGTCACAGC	1.06
GCGTCACGGA	1.02
GCGTCATGGG	0.963
GCGTCCAGC	0.951
GCGTCGTACG	0.982
GCGTCTAGAC	1.05
GCGTCTCATC	1.02
GCGTCTGGTG	0.993
GCGTGACCGT	1.01
GCGTGATGCG	1.02
GCGTGCTTTC	1.04
GCGTGGACGT	1.05
GCGTGGCATT	1
GCGTGGGCGG	0.983
GCGTGGTCCG	0.993
GCGTGTTCAT	0.988
GCGTGTTTCC	1.04
GCGTTACCGG	0.994
GCGTTAGCGA	0.954
GCGTTATGGT	0.974
GCGTTCACTT	1.02
GCGTTCCTGC	0.972

Sequence	switch fluorescence ratio
GCGTTCCTGT	1.02
GCGTTGGTCT	1.02
GCGTTGGTTC	1.03
GCGTTTATAT	1.02
GCGTTTCAAA	1.03
GCGTTTGCCA	0.973
GCTAACCTTT	1.03
GCTAAGTTAC	1.27
GCTAATAGCG	0.999
GCTAATCCTG	1.03
GCTAATCTAA	1.01
GCTAATTCGT	0.992
GCTAATTCTA	1
GCTACACTGG	1.04
GCTACAGTC	1.03
GCTACCCCCA	1.67
GCTACCGTTG	1.05
GCTACGATTA	1.14
GCTACGGAGT	1.06
GCTACGGTTG	0.996
GCTACTTTCT	1.02
GCTAGATCAA	0.977
GCTAGCGCAT	1.08
GCTAGCGTAT	1.08
GCTAGTAAGC	0.951

Sequence	switch fluorescence ratio
GCTATAAAAT	0.957
GCTATACCCC	2.45
GCTATAGACA	1.05
GCTATAGGAG	1
GCTATAGGCG	1.02
GCTATCGTTT	0.964
GCTATGCAGG	1.03
GCTATGGGGT	1.05
GCTATGTCAA	0.945
GCTATTGCCA	1.03
GCTCACAGAT	1.02
GCTCACAGCG	0.994
GCTCACGATA	1.23
GCTCAGACGC	1.1
GCTCAGTCCA	1.03
GCTCATGAGG	0.96
GCTCCAAGTC	1.19
GCTCCAATCC	1.73
GCTCCACGGG	1.7
GCTCCAGAAG	1.08
GCTCCAGATA	1.19
GCTCCATCGT	1.02
GCTCCCTACG	1.7
GCTCCCTGGA	1.02
GCTCCTCGA	1.88

Sequence	switch fluorescence ratio
GCTCCTTGGG	1
GCTCGAAATA	1.45
GCTCGAGATG	0.998
GCTCGAGGCA	1.01
GCTCGATCGT	1.03
GCTCGGGCTA	0.986
GCTCGTCTAC	1.04
GCTCGTGGGA	1.03
GCTCGTGGGT	0.994
GCTCTAATCA	0.979
GCTCTAGAGT	1.01
GCTCTAGGGC	0.981
GCTCTCATTC	1.13
GCTCTCGATG	1.03
GCTCTGCTAA	1.35
GCTCTGGCAT	1.08
GCTCTGGTCA	0.957
GCTCTGTCTG	0.987
GCTCTTAATT	0.981
GCTCTTCC	1.8
GCTCTTCGCG	1.01
GCTCTTGTAA	1.04
GCTGAAGTGC	0.958
GCTGAGAATA	0.996
GCTGAGAGG	0.981

Sequence	switch fluorescence ratio
GCTGAGTGTG	1
GCTGAGTTGC	1
GCTGATAGTG	0.978
GCTGATGCTG	1
GCTGCAAC	2.15
GCTGCAGGTG	3.13
GCTGCCCTTA	0.993
GCTGCGACAC	2.2
GCTGCGATTT	0.997
GCTGCGGACT	1.06
GCTGGATCTG	0.981
GCTGGCAAT	1.04
GCTGGCACTC	0.977
GCTGGCTGCA	1.02
GCTGGGCTGT	0.999
GCTGGTCACC	0.974
GCTGGTTTAT	0.978
GCTGTAATCG	0.989
GCTGTACAAT	1.02
GCTGTCGACG	0.976
GCTGTGAGCG	1.02
GCTGTGCGGC	1
GCTGTTAGAC	1.06
GCTGTTCAGT	0.978
GCTGTTGG	0.996

Sequence	switch fluorescence ratio
GCTGTTTGAG	0.986
GCTGTTTGGA	1.01
GCTTAACATT	0.988
GCTTAACTGG	0.97
GCTTAATGGC	0.987
GCTTACGTGA	1.08
GCTTAGAAGA	1.09
GCTTAGACTT	0.944
GCTTAGCCAC	1.05
GCTTCATTCT	0.969
GCTTCTGACG	1.67
GCTTCTGGAG	2.13
GCTTGACGTG	0.975
GCTTGCGCAG	1.05
GCTTGGCACT	0.987
GCTTGGCCGA	1.01
GCTTGGGTT	1.02
GCTTGTACCG	1.04
GCTTGTGACT	0.94
GCTTGTGCTT	1.01
GCTTTAACGC	1.07
GCTTTAAGTT	0.986
GCTTTACTGA	1
GCTTTCATAG	0.993
GCTTTCGACT	1.08
